Data reported in PubChem BioAssay AID651820 (National Center for Advancing Translational Sciences (NCATS), 2012).
Out of some 340,000 compounds screened, about 12,000 (3.5%) were called active. The inconclusive results got no clear call from the source; some entries with a clear call stand among them for comparison. Calls follow the shape of the dose curve; as a rule, active = well fitted inhibition curve with a large enough effect; inconclusive = small, poorly fitted or top-dose-only effect, or another doubt; inactive = no such curve, though single readings can be large or run the other way. Potencies of inconclusive entries are left out as doubtful fits.

assay: qHTS Assay for Inhibitors of Hepatitis C Virus (HCV); settings: Huh7.5.1 HCVcc-Cre (HCVcc is cell-culture hepatitis C virus) infection, luciferase reporter, 44 h; series mostly up to 41.8 µM
Procedure, shortened: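 Antiviral activity was scored by luciferase reporter output from cells infected with HCVcc-Cre (~0.5 moi) in presence of compound, 44 h infection period, cells seeded 1,000/well 4 h prior.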
Potency is read from the fitted curve at half-maximal effect; tags tell the direction and shape of the fitted curve.

| SMILES | Potency |
| --- | --- |
| Clc1ccc2[nH]cc(-c3nnnn3-c3ccc4ccccc4c3)c2c1 | inconclusive [inhibitor, partial curve, poor fit] |
| O=C(CN1CCCCCC1)Nc1ccc([N+](=O)[O-])cc1Br | inactive |
| COc1ccc2c(c1)NC1(O)c3ccccc3C(=O)C21O (configuration not stated) | inconclusive [inhibitor, single point] |
| COc1ccccc1N1C(=O)NC(=O)/C(=C/c2ccc3c4c(cccc24)CC3)C1=O | inactive |
| O=C(Nc1ccccc1N1CCCCC1)c1cc(S(=O)(=O)N2CCOCC2)ccc1F | inconclusive [inhibitor, partial curve] |
| CC1=[N+](C)c2c(ccc3cccnc23)C1(C)C | inconclusive [inhibitor, partial curve, poor fit] |
| Cc1ccc(C(=O)NC(=S)Nc2ccc(-c3ccc(CO)o3)cc2)cc1 | inconclusive [inhibitor, single point] |
| COc1ccc(NC(=O)CNc2cccc(C#N)c2)cc1Cl | inconclusive [inhibitor, partial curve] |
| CCOC(=O)CSc1nnc(NC(=O)c2ccc3c(c2)OCO3)s1 | inactive |
| C=CCO/N=C(/CCC)C1=C(N)CC(C)(C)CC1=O | inconclusive [inhibitor, single point] |
| Cc1cccn2c(=O)c(C=O)c(NCc3ccccc3)nc12 | inconclusive [inhibitor, partial curve] |
| CC(=O)Nc1ccc(NS(=O)(=O)c2ccc(-c3cnc(C4CC4)o3)cc2)cc1 | inconclusive [inhibitor, single point] |
| N#CCCNS(=O)(=O)c1ccc(C(=O)OCCCOC(=O)c2ccc(S(=O)(=O)NCCC#N)cc2)cc1 | inactive |
| Cc1ccc(NC(=O)c2nnn(CC(=O)Nc3ccccc3)c2N)cc1C | inconclusive [inhibitor, partial curve, poor fit] |
| O=C(c1ccncc1)N1CCN(S(=O)(=O)c2ccc3ccccc3c2)CC1 | inconclusive [inhibitor, single point] |
| O=C(Nc1ccccc1)c1ccc(NCc2ccco2)c(S(=O)(=O)N2CCOCC2)c1 | inactive |
| COc1cccc(CNC(=O)c2cccnc2Sc2ccc(C)cc2C)c1 | inconclusive [inhibitor, single point] |
| Cc1ccc(NC(=O)C(OC(=O)c2ccc(NC(N)=O)cc2)c2ccccc2)cc1Cl (configuration not stated) | inconclusive [inhibitor, partial curve] |
| CC1CCCN(S(=O)(=O)c2cccc(C(=O)NCc3ccco3)c2)C1 (configuration not stated) | inconclusive [inhibitor, full curve, poor fit] |
| COc1ccc(C(=O)OCC(=O)N(C)C2CCS(=O)(=O)C2)cc1S(=O)(=O)N1CCCc2ccccc21 (configuration not stated) | inactive |
| CCc1nc(C)cn1S(=O)(=O)c1cc(Br)c(C)cc1OC | inconclusive [inhibitor, partial curve] |

| SMILES | Potency |
| --- | --- |
| CCOc1ccc(NS(=O)(=O)c2ccc(C(=O)NNC(=O)c3ccccc3O)cc2)cc1 | inconclusive [inhibitor, single point] |
| COc1ccc(Oc2cc(NC(=O)c3nn(C)cc3[N+](=O)[O-])cc([N+](=O)[O-])c2)cc1 | inconclusive [inhibitor, partial curve, poor fit] |
| COc1ccccc1CNC(=O)COc1cc2c(c3oc(=O)cc(C)c13)CCC(C)(C)O2 | active: 3.55 µM |
| CCCCNCCOCCOc1ccc(Cl)cc1Br | inconclusive [inhibitor, partial curve] |
| O=C(CN1CCCN(S(=O)(=O)c2ccc(F)cc2)CC1)Nc1ccccc1Br | inconclusive [inhibitor, single point] |
| COC(=O)Cn1c(=NC(=O)c2cc(OC)c(OC)c(OC)c2)sc2cc(OC)ccc21 | inconclusive [inhibitor, full curve] |
| COC(=O)C1=C(C)NC(=O)NC1c1ccc(-c2ccccc2Cl)o1 (configuration not stated) | inconclusive [inhibitor, partial curve] |
| Oc1ccc(C=Nc2ccc(N3CCOCC3)cc2)c(O)c1 | inactive |
| Cc1ccc(S(=O)(=O)n2ccc3c(OCCOCCNCc4ccc(F)cc4)cccc32)cc1 | inconclusive [inhibitor, single point] |
| CC1(C)CN=C(N(Cc2ccccc2)C(=O)Nc2ccccc2)S1 | inactive |
| CCOC(=O)c1cc2c(=O)n3ccccc3nc2n(Cc2ccco2)c1=NC(=O)c1ccccc1OCC | inconclusive [inhibitor, full curve] |
| CCC1CCCCN1CCCNC(=O)CC1Oc2ccc(C)cc2NC1=O (configuration not stated) | inconclusive [inhibitor, single point] |
| COc1ccc(S(=O)(=O)Nc2cc(C(C)C)c(O)cc2C)cc1 | inconclusive [inhibitor, partial curve] |
| COc1ccc(CCNC(=O)CN2CCN(c3cccc(Cl)c3)CC2)cc1OC | active: 10 µM |
| COc1ccc2nc(SC(C)C(=O)NC3(C#N)CCCCC3)[nH]c2c1 (configuration not stated) | inconclusive [inhibitor, single point] |
| O=C(CSc1ccc2nnc(-c3cccnc3)n2n1)Nc1cccc(F)c1 | inactive |
| C(=C\c1ccccc1)/CSc1nnc(-c2cnccn2)n1Cc1ccco1 | inconclusive [inhibitor, partial curve, poor fit] |
| COc1cc(OC)cc(C(=O)NC2CCSc3ccccc32)c1 (configuration not stated) | inactive |
| Cc1ccc2nc(NC(=O)c3cc(-c4ccco4)nc4ccccc34)sc2c1 | inconclusive [inhibitor, single point] |
| CSCC[C@H](NC(=O)N1C[C@H]2C[C@@H](C1)c1cccc(=O)n1C2)C(=O)Nc1ccc(NC(C)=O)cc1 | inconclusive [inhibitor, full curve] |
| CCNc1ccc(C(=O)OCC(=O)c2cc(C)n(Cc3ccc4c(c3)OCO4)c2C)cc1[N+](=O)[O-] | inconclusive [inhibitor, partial curve] |
